Data taken from paper PMC4336329 (PLoS ONE, 2015).
In all, about 310,000 compounds went through this assay and about 14,000 (4.5%) showed an effect of 50% or more. Effects have a minus sign here. The list shows a part of the results.

The compounds below were run against human ether-à-go-go-related gene (hERG) potassium channel (human, UniProt Q12809) (assay: primary screen, population patch clamp on CHO cells stably expressing hERG).
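Note: peak tail current of the secondary pulse compared with the same well before compound.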

Sequence of human ether-à-go-go-related gene (hERG) potassium channel (Q12809 whole entry, looked up): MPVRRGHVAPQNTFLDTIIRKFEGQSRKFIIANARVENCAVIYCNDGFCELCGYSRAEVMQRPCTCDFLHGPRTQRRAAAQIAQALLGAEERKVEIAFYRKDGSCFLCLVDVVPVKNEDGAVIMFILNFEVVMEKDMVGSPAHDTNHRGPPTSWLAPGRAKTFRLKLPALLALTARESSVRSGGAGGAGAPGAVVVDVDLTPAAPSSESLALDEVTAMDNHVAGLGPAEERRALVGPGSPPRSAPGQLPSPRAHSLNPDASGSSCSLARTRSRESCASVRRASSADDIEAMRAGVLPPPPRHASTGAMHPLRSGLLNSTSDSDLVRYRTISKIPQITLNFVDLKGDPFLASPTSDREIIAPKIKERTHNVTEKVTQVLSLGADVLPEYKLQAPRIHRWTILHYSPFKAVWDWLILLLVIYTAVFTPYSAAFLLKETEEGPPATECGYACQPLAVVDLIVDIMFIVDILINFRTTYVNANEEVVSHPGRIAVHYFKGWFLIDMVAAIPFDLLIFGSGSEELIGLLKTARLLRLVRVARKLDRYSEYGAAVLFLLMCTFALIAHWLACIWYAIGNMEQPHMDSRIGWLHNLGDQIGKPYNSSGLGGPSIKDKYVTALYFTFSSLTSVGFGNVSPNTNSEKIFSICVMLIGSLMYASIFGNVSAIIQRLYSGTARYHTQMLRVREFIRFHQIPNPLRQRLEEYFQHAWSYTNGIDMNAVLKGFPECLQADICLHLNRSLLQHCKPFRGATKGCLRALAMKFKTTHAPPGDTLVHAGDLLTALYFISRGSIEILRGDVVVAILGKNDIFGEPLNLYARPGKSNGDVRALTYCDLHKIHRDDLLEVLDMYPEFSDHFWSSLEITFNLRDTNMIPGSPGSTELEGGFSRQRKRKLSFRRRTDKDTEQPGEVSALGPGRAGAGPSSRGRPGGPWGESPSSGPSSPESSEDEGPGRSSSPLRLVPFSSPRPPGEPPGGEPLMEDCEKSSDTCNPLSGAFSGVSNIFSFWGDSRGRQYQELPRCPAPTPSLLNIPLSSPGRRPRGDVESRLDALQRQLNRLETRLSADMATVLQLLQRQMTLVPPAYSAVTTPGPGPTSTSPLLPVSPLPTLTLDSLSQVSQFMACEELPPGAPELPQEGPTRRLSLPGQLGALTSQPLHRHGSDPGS

Compound | hERG current change (%, negative = inhibition) at 10uM
CC(=O)N(C)c1ccc(NC(=S)NCC(C)C)cc1 | 3.87%
O=C1CCN(Cc2ccccc2)CCN1[C@H](CO)Cc1ccccc1 | 14.5%
Cc1ccccc1C(=O)Nc1cccc(NC(=O)c2ccccc2[N+](=O)[O-])c1 | 10.8%
COc1ccc(S(=O)(=O)N2CC(O)CC2C(=O)OCc2nc3sc(C)c(C)c3c(=O)[nH]2)cc1 (centres unmarked) | -12.1%
Cc1cc(C(=O)COC(=O)c2cccnc2Cl)c(C)n1-c1c(C)n(C)n(-c2ccccc2)c1=O | 10%
CCOC(=O)N1CCN(C(=O)c2cc(OC)c(OC)c(OC)c2)CC1 | 8.92%
Cc1ccccc1Cn1c(=O)n(-c2ccccc2)c(=O)c2ccc(C(=O)NCc3ccco3)cc21 | -8.57%
CC(C)(C)NS(=O)(=O)c1ccc(NC(=O)C(Sc2ccccc2)c2ccccc2)cc1 (centres unmarked) | 3.56%
CCC(C)C1(CC)C(=O)NC(=O)N=C1N (centres unmarked) | 36.1%
CCOC(=O)c1c(NC(=O)C2COc3ccccc3O2)sc(C(C)=O)c1C (centres unmarked) | 2.83%
O=C(Nc1ccc(S(=O)(=O)NCCc2ccccc2)cc1)c1ccco1 | -0.611%
CC(NC(=O)C1CCC(C(=O)NC(C)c2ccccc2)CC1)c1ccccc1 (centres unmarked) | 22.9%
Cc1noc(C(=O)NCC2CCCO2)c1Cl (centres unmarked) | 19.2%
CCCCN(Cc1ccco1)S(=O)(=O)c1ccc(-c2ccc(=O)[nH]n2)s1 | -27.7%
COc1ccc(C(=O)Nc2ccc(N3CCN(C)CC3)cc2)cc1OC | -11.9%
CC1(C)CC(NC(=O)C2CCC(=O)N(C3CC3)C2)CC(C)(C)C1 (centres unmarked) | 3.61%
CCN(CC(=O)Nc1c(F)cccc1F)C(=O)c1cc([N+](=O)[O-])ccc1N1CCCCC1 | -10.6%
C=CCN(C(=O)c1cccc(C(F)(F)F)c1)C1(C(=O)Nc2ccccc2)CCN(C(C)C)CC1 | -23.8%
COc1ccc(C(=O)c2c[nH]c(C(=O)NCCCN3CCOCC3)c2)cc1 | 9.08%
Cc1cccnc1NC(=S)NC(=O)/C=C/c1ccco1 | 11.5%
CCC(C)[C@H]1COCCS(=O)(=O)N1Cc1ccc(Br)cc1 (some centres unmarked) | -18.5%
COc1ccc(CN2C(=O)c3ccccc3C2C(=O)NCCc2ccccc2)c(OC)c1 (centres unmarked) | -9.73%
Cc1cccc(N2CCN(Cc3ccc(Br)o3)CC2)c1C | 5.87%

Compound | hERG current change (%, negative = inhibition) at 10uM
COC(=O)Cn1cnc2c(nnn2-c2ccc(C)cc2)c1=O | 10.4%
COc1ccc(S(=O)(=O)NCC2CCCN(C(=O)C3CCCC3)C2)cc1 (centres unmarked) | -5.41%
COC(=O)c1[nH]nc(-c2ccccc2)c1-c1ccccc1 | -5.99%
COc1ccc(S(=O)(=O)n2ccc(C)n2)cc1C | -1.78%
O=C(Cn1ccc([N+](=O)[O-])n1)N1CCCc2ccccc21 | -20.4%
COc1cc(C(=O)Nc2ccc3c(c2)nc(C)n3C)cc(OC)c1OC | 15.6%
O=c1ccc2cc(S(=O)(=O)Nc3ccc(F)cc3)ccc2o1 | -4.44%
CC(C)Cc1nnc(NC(=O)c2ccc([N+](=O)[O-])cc2)s1 | 12.7%
COC(=O)c1ccc2c(=O)n(CC3CCCO3)c(SCC(=O)Nc3ccccc3Cl)nc2c1 (centres unmarked) | -13.7%
CC1(C)CC(NC(=O)C2CCCCC2)CC(C)(C)N1 | 9.64%
COc1ccc(-c2[nH]c(-c3ccc(C)cc3)nc2SCC(=O)NCc2ccco2)cc1OC | 9.39%
Cc1ccc(C(=O)Nc2ccc(S(=O)(=O)N3CCOCC3)cc2)cc1 | 9.64%
Cc1cc(N2CCN(c3ccc([N+](=O)[O-])c4cccnc34)CC2)c2ccccc2n1 | -64.3%
Cc1ccnc(NS(=O)(=O)c2ccc(C(C)(C)C)cc2)c1 | -4.12%
O=C(c1c(F)cccc1F)N1CCN(c2ncccn2)CC1 | 1.98%
Cn1c(N)c(C(=O)CSc2nnc(C3CC3)n2N)c(=O)n(C)c1=O | -3.45%
CCOP(=O)(OCC)C(Nc1ccccn1)c1ccccc1 (centres unmarked) | 1.31%
N#Cc1c(-c2ccccc2Cl)cc(C2CC2)nc1N | 12.2%
Nn1cnnc1SCC(=O)N(C1CCCCC1)C1CCCCC1 | -0.865%
CCCCCn1c(=O)[nH]c2cc(C(=O)N3CCN(CC)CC3)ccc2c1=O | 10.1%
COc1ccc(NC(=O)ON=C2c3ccccc3-c3ccccc32)cc1 | 0.872%
Br.CCOC(=O)c1c(CSC(=N)N)n(-c2ccc(C)cc2)c2cc(Br)c(OC(C)=O)cc12 | -65.4%
CC(C)(C)NCCOc1ccc2ccccc2c1 | 9.51%

Compound | hERG current change (%, negative = inhibition) at 10uM
N#CCSc1nnc(COc2cccc3ccccc23)n1-c1ccccc1 | 6.77%
C/C(=N/NC(=O)C(O)(c1ccccc1)c1ccccc1)c1ccc([N+](=O)[O-])o1 | -71.6%
O=C(Cn1c(=O)oc2ccccc21)N1CCCC1 | 14.4%
COc1ccc(-c2csc(Nc3ccc(C)cn3)n2)cc1OC | -6.35%
O=C(CN(Cc1ccco1)C(=O)CNS(=O)(=O)c1ccc(F)cc1)NCCc1ccccc1 | -18.5%
CCN(CCn1cccn1)Cc1cn[nH]c1-c1ccc(OC)cc1F | -35.7%
COC(=O)C(NC(=O)c1ccc(Cl)cc1)(Nc1nc(C)cs1)C(F)(F)F (centres unmarked) | -8.63%
COc1cc(C(=S)N2CCOCC2)cc(OC)c1OC(=O)c1cc([N+](=O)[O-])c(C)c([N+](=O)[O-])c1 | 7.72%
CC(C)CN(C(=O)COC(=O)c1cnc(Cl)c(Cl)c1)c1c(N)n(Cc2ccccc2)c(=O)[nH]c1=O | 5.35%
COc1cc(C2/C(=C(\O)c3ccc4c(c3)OCCO4)C(=O)C(=O)N2Cc2ccco2)cc(OC)c1OC (centres unmarked) | 15.8%
CCc1ccccc1NC(=O)c1cnc2scc(C)n2c1=O | -4.49%
CN(CC(=O)Nc1ccc(S(N)(=O)=O)cc1)Cc1ccccc1F | 0.68%
Cc1ccc(NC2=C(Cl)C(=O)OC2NC(=O)c2ccccc2)cc1 (centres unmarked) | 0.653%
CCNC(=O)N1c2ccc(OC)cc2C(C)=CC1(C)C | 9.38%
COc1cccc(C(=O)Nn2c(C)nnc2-n2nc(C)cc2C)c1 | -16.8%
CCc1ccc(NC(=S)Nc2ccc(S(=O)(=O)Nc3ncccn3)cc2)cc1 | 14%
Cc1cccc(NC(=O)C2CCN(S(=O)(=O)c3cccs3)CC2)n1 | -25%
CC(=O)Nc1cccc(/C(C)=N/NC(N)=S)c1 | 11.2%
Fc1ccc(CNCc2ccc(Br)cc2)cc1 | -28.5%
COC(C)(C)c1cc(C(C)(C)C)nc(N)n1 | 7.95%
CCCc1cc(C(=O)N(C2CCCCC2)C2CCCCC2)no1 | -18.7%
COc1ccccc1NC(=O)C1=C(C)Nc2nc(CCCO)nn2C1c1cccnc1 (centres unmarked) | 0.927%
CC(Nc1nc2ccccc2n2cnnc12)c1ccccc1 (centres unmarked) | -32.3%

Compound | hERG current change (%, negative = inhibition) at 10uM
COc1ccc(OC)c(CNc2ccc([N+](=O)[O-])cc2C)c1 | 3.55%
O=C(Nc1ccc(-c2nc3ncccc3o2)cc1)c1ccc([N+](=O)[O-])o1 | 2.19%
CCOCCCNC(=O)C1CC(=O)N(C2CCCC2)C1 (centres unmarked) | 8.37%
CCn1c(/C=C/c2ccccc2C)nc2ccccc2c1=O | -10.7%
COc1ccc2oc(=Nc3cc(F)ccc3F)c(C(N)=O)cc2c1 | -1.22%
CN(c1ccccc1)c1nc(N)c([N+](=O)[O-])c(N2CCCC2)n1 | -11.9%
COc1ccc(NC(=O)CSc2nc(O)cc(=O)n2-c2ccccc2)cc1 | 12.1%
CCN1C(=O)NC(=O)/C(=C/c2cc(C)n(-c3sc(C)c(C)c3C#N)c2C)C1=O | -4.66%
COc1ccc(OCC(=O)NNC(=S)NC(=O)C2CCCCC2)cc1 | 18.5%
CCCC(C)NC(=O)C1c2ccccc2Oc2ccccc21 (centres unmarked) | 14.9%
Cc1ccc(CSCC(=O)Nc2c(C)n(C)n(-c3ccccc3)c2=O)cc1 | 32.7%
COc1ccccc1Nc1nc(Cl)c(C=O)s1 | 8.17%
CC(=O)n1c2ccccc2c2ccccc21 | 4.56%
COc1ccc(-c2cc(C)no2)cc1S(=O)(=O)Nc1ccccc1 | 13.6%
CCc1ccc(S(=O)(=O)NCCc2cn3ccccc3n2)s1 | -29.5%
CCOc1ccc(S(=O)(=O)NCc2cccnc2)cc1 | 15.5%
O=C(NC1CC1)C1CCN(c2ncnc3c2sc2cccc(F)c23)CC1 | -52%
N#CC(C#N)=Cc1cccn1-c1ccc(S(N)(=O)=O)cc1 | 9.19%
Cc1cccc(NC2(C(F)(F)F)N=C3SCCN3C2=O)n1 (centres unmarked) | 5.6%
O=C(c1ccccc1Cl)N1N=C(c2ccc(Br)cc2)CC1c1nc2ccccc2[nH]1 (centres unmarked) | -7.26%
